# PubChem BioAssay AID1345082 (National Center for Advancing Translational Sciences (NCATS), 2018)
# Where “and” joins values, the source holds several entries; their conditions need not be identical. Equal values may be shown once. Out of some 94,000 compounds screened, about 4,000 (4.3%) were called active. Inconclusive results, whose numbers are uncertain, are shown with a selection of clear calls. Calls come from the whole dose curve; as a rule, active = well fitted inhibition curve with a large enough effect; inconclusive = small, poorly fitted or top-dose-only effect; inactive = no such curve, though single readings can be large or run the other way. Potencies of inconclusive entries are doubtful fits and often do not repeat.
# Assay: Cytotoxic Profiling in NIH 3T3 Cell Line of Diverse Libraries Using Quantitative High-Throughput Screening; note: nearly all actives have a fitted effect of over 55% in size
# Details: NIH 3T3 viability, CellTiter-Glo ATP luminescence, 48-72 h; activity change, negative = cytotoxicity: at 96.7 µM (top of the series) unless noted; series mostly up to 96.7 µM
# How it was run: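 NIH 3T3 cells at 400 cells/well received 23 nL of compound by pintool and were incubated 48 or 72 h at 37 °C. Viability was read as ATP-coupled CellTiter-Glo luminescence.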
# % is set by controls: 0 for no effect and ±100 for the full control effect; potency is the fitted concentration of half-maximal effect; tags give direction and shape of the fitted curve.
SMILES,Potency,"activity change, negative = cytotoxicity",outcome
CCCC(C)N1CC2(CCN(C(=O)c3cc(Cl)ccc3C)CC2)OC1=O (configuration not stated),"inconclusive: 50.1 µM [inhibitor, partial curve, poor fit]",–,–
Cn1ncc2c(C(=O)NCc3ccccn3)cc(-c3ccsc3)nc21,"inconclusive: 89.1 µM [inhibitor, partial curve]",–,–
CN(C)C(=O)c1cccn2nccc12,–,inactive: -4.77% [at 174 µM],–
CN(c1ccccc1)c1cc(=O)c2ccnc(NC3CCOCC3)c2o1,"inconclusive: 7.94 µM [inhibitor, full curve, poor fit]",–,–
COCCc1nc(CNC(=O)c2ccc3nc(C4CCCCC4)oc3c2)no1,"inconclusive: 89.1 µM [inhibitor, partial curve, poor fit]",–,–
COc1cccc(-c2cc3c(=O)n(CCNC(=O)c4cc(Cl)ccc4F)ccn3n2)c1,–,inactive: -19.8%,–
O=C(Cc1cccc(Cl)c1)N1CCC2(C1)C(=O)N(CCc1ccccc1)c1ccccc12 (configuration not stated),"active: 44.7 µM and inconclusive: 44.7 µM [inhibitor, partial curve, poor fit]",–,–
O=C(CNC(=O)c1cccc(-c2ccc(C(F)(F)F)cc2)c1)NCC(F)F,"inconclusive: 50.1 µM [inhibitor, partial curve, poor fit]",–,–
COCCn1c(C)cc(C(=O)NCC(=O)N2CCCCCNC(=O)CC2c2ccccc2)c1C (configuration not stated),–,inactive: -6.67%,–
COCCNC(=O)CC[C@]12CC[C@](C)(O)C[C@H]1C(C)(C)C[C@@H]2NS(=O)(=O)c1ccc(C)cc1,"inconclusive: 89.1 µM [inhibitor, single point]",–,–
CC(C)c1ccc(NC(=O)C2CCN(C(=O)c3ncn4c3COC(c3ccccc3)C4)CC2)cc1 (configuration not stated),–,–,inactive
COc1ccc(Cc2nc3nccc(-c4ccc5c(c4)OCCCO5)n3n2)cc1,"inconclusive: 70.8 µM [inhibitor, single point]",–,–
COc1ccc(-c2cc(C[C@H]3CNCC[C@H]3CC(=O)NC(C)(C)C)no2)cc1,"inconclusive: 126 µM [inhibitor, single point]",–,–
Cn1ncc2c(C(=O)Nc3cccc(Cl)c3)cc(C(C)(C)C)nc21,"inconclusive: 44.7 µM [inhibitor, full curve]",–,–
O=C(NCC1CCCO1)c1ccnc(-c2nnc3ccc(Nc4ccccc4)nn23)c1 (configuration not stated),"inconclusive: 79.4 µM [inhibitor, partial curve]",–,–
Cc1ccc(C(=O)Nc2ccc(C(O)[C@H]3COCC(=O)N3Cc3ccccc3F)cc2)cc1 (some centres not stated),"inconclusive: 44.7 µM [inhibitor, partial curve, poor fit]",–,–
CC1(c2ccccc2)N(Cc2ccccc2C#N)C(=O)OC12CCN(Cc1c[nH]c3ccccc13)CC2 (configuration not stated),active: 22.4 µM,–,–
O=C(NCc1ccc(F)cc1)c1nc(-c2ccc(F)cc2)c2ccccn12,–,inactive: -17.8%,–
CC1CCCN(C(=O)c2cc(-c3cnn(CCO)c3)nc3cc(Cl)ccc23)C1 (configuration not stated),"inconclusive: 79.4 µM [inhibitor, partial curve, poor fit]",–,–
O=C(c1ccccc1)N1CCN(C(=O)c2nnn3c2COC(c2ccc(Cl)cc2)C3)CC1 (configuration not stated),–,inactive: -8.07%,–
O=C1CO[C@H]2CCN(Cc3ccccc3F)CC[C@@H]2N1Cc1ccccc1,–,inactive: -29% [at 138 µM],–
COc1ccc(CCC(=O)N2CCCC3(CC2)CN(C)C(=O)O3)cc1OC (configuration not stated),–,inactive: -0.528%,–
O=C(C1COc2ccccc2O1)N1CCN(c2cc(-c3ccc(Cl)cc3)[nH]n2)CC1 (configuration not stated),"inconclusive: 44.7 µM [inhibitor, partial curve, poor fit]",–,–

SMILES,Potency,"activity change, negative = cytotoxicity",outcome
CCC(=O)N1CCc2c(C(=O)Nc3ccc(OC)cc3OC)cccc21,–,inactive: -22.7%,–
COC(=O)c1ccc2nc(C[C@@H]3C[C@@H](C(C)C)[C@H](CNC4CCOCC4)C=C3C)[nH]c2c1,"inconclusive: 56.2 µM [inhibitor, partial curve, poor fit]",–,–
Cc1ccc(Nc2ccnc(N3CCC(NC(=O)Cc4ccccn4)CC3)n2)cc1,"inconclusive: 44.7 µM [inhibitor, partial curve, poor fit]",–,–
COc1ccc(-n2c(=O)c3c(n2Cc2ccccc2)CN(C(=O)C(C)C)CC3)cc1,active: 10 µM,–,–
Cc1cc(C)c([S+](=O)([O-])c2nnn3c2nc(N2CCCCC2)c2ccccc23)c(C)c1,–,inactive: -18.5%,–
O=C(NCc1cccc(F)c1)c1nc2c(o1)CCN(Cc1cccc(Cl)c1)CC2,"inconclusive: 79.4 µM [inhibitor, partial curve, poor fit]",–,–
CCOC(=O)C1CCCN(C(=O)c2cn3cc(-c4ccccc4)sc3n2)C1 (configuration not stated),"inconclusive: 50.1 µM [inhibitor, partial curve, poor fit]",–,–
COCCn1nc2n(c1=O)CCN(C(=O)COc1ccc(Cl)cc1C)CC2,–,inactive: -14.9%,–
COc1ccc(-c2nc(C3CC3)nc3c2CCN([S+](=O)([O-])c2ccccc2)CC3)cc1,"inconclusive: 12.6 µM [inhibitor, full curve, poor fit]",–,–
O=C(NCC1CC1)c1cn(C2CN(C(=O)Nc3ccc4c(c3)OCCO4)C2)nn1,–,inactive: -5.88%,–
COc1ccc(OC)c(C2CCN(C(=O)c3cc4ccccc4[nH]c3=O)C2)c1 (configuration not stated),"inconclusive: 56.2 µM [inhibitor, partial curve, poor fit]",–,–
Cc1c(-c2ccccc2)[nH]c2c(CNC(=O)CN3C(=O)CNC3=O)cc(Cl)cc12,"inconclusive: 79.4 µM [inhibitor, partial curve]",–,–
c1cncc(CN2CCc3c(sc4ncnc(N5CCOCC5)c34)C2)c1,"inconclusive: 50.1 µM [inhibitor, partial curve, poor fit]",–,–
CC1(C(=O)NCCN2CCCCC2)CCCCC(=O)N1 (configuration not stated),–,inactive: -1.41%,–
Cc1ccc(CNC(=O)N2CCCC(c3noc(COc4ccccc4)n3)C2)cc1 (configuration not stated),"inconclusive: 50.1 µM [inhibitor, partial curve, poor fit]",–,–
CN1C[C@@H]2CCCN3CCC[C@@H]([C@H]23)[C@H]1CCCC(=O)NC1CC1,–,inactive: -1.89%,–
COc1cc(NC(=O)Cn2c(N3CCN(c4ccccc4)CC3)nc(C)cc2=O)cc(OC)c1,"inconclusive: 70.8 µM [inhibitor, single point]",–,–
O=C(NCc1cccs1)C1CN(C2CCCCC2)C(=O)N1 (configuration not stated),–,inactive: -9.59% [at 138 µM],–
CCCc1nnsc1C(=O)N[C@@H]1COCC[C@@H]1OCC1CC1,–,inactive: -6.96%,–
Cc1cc(=O)n(CC(=O)Nc2ccc(C(C)C)cc2)c(N2CCN(c3ccccc3)CC2)n1,active: 31.6 µM,–,–
COc1ccc(CCN2CCCC(CN(C)Cc3cnc[nH]3)C2)cc1 (configuration not stated),–,inactive: -27.8%,–
Cc1ccccc1-c1[nH]nc2ncc(-c3ccsc3)nc12,"inconclusive: 25.1 µM [inhibitor, full curve, poor fit]",–,–
CC1=C[C@@H](CN2C(=O)C(C)=C(C)C2=O)[C@H](C(C)C)C[C@H]1Cc1nc2ccccc2[nH]1,active: 25.1 µM,–,–

SMILES,Potency,"activity change, negative = cytotoxicity",outcome
Cc1ccc(-c2ncc(C(=O)Nc3ccc(F)c(F)c3)c(-c3ccncc3)n2)cc1,"inconclusive: 39.8 µM [inhibitor, partial curve, poor fit]",–,–
Cc1oc(-c2ccc(OC(C)C)cc2)nc1Cn1ccn2nc3c(c2c1=O)CCCC3,"inconclusive: 44.7 µM [inhibitor, partial curve, poor fit]",–,–
CC(C)C(=O)N1CCC(Oc2ccccc2-c2nc(-c3cnccn3)no2)C1 (configuration not stated),–,inactive: -2.61%,–
CC(C)NC(=O)N1C[C@@H]2C[C@H]1C(=O)N(C)c1ccccc1O2,–,inactive: 0.23% [at 138 µM],–
CCC(=O)N1CCC(O)(c2ccccc2)[C@H](N2CCCC2)C1 (some centres not stated),"inconclusive: 70.8 µM [inhibitor, single point]",–,–
Cc1noc(C)c1S(=O)(=O)N1CCCN(Cc2ccncc2)C(c2ccccc2)CC(=O)NCC1 (configuration not stated),–,inactive: -24.2%,–
O=C1[C@H]2CN(Cc3cc(Br)ccc3F)C[C@H]2C(=O)N1CCc1ccccc1,"inconclusive: 70.8 µM [inhibitor, single point]",–,–
C=CCOc1ccc(CNC2CCN(S(C)(=O)=O)CC2)cc1CC=C,"inconclusive: 89.1 µM [inhibitor, single point]",–,–
CC(C)n1nc(OC(C)(C)C(=O)NCCOc2ccccc2)c2cc(CN3CCOCC3)ccc21,"inconclusive: 70.8 µM [inhibitor, single point]",–,–
Cc1nc(C(=O)N2CCOc3c(O)cc(-c4cccc(Cl)c4)cc3C2)cs1,"inconclusive: 44.7 µM [inhibitor, partial curve, poor fit]",–,–
Oc1ccccc1CN1CCNc2cnc(Nc3ccccc3)cc2C1,"inconclusive: 50.1 µM [inhibitor, partial curve, poor fit]",–,–
O=C(c1[nH]nc2c1COc1ccccc1-2)N1CCCC(Cc2nc(C3CCOCC3)no2)C1 (configuration not stated),"inconclusive: 44.7 µM [inhibitor, partial curve, poor fit]",–,–
COCc1ncc(C)n1CCNC(=O)Nc1ccc(C)c(C)c1,–,inactive: -12.5%,–
COc1ccc(CCNC(=O)c2ccc3nnc(-c4ccc([S+](C)(=O)[O-])cc4)n3c2)cc1,–,inactive: -22.5%,–
COc1ccc(CN2CC[C@@](C)(O)[C@H](N3CCCC3)C2)cc1,"inconclusive: 56.2 µM [inhibitor, partial curve, poor fit]",–,–
CCC1(C(=O)NCc2ccc(Cl)cc2)CCCCC(=O)N1 (configuration not stated),–,inactive: 2%,–
COc1ccc(-c2cc(N3CCN(C(=O)Cc4c(F)cccc4Cl)CC3)n[nH]2)cc1,–,inactive: 1.97%,–
CN(C1CCOCC1)C1CCc2nn(C)c(=O)n2CC1 (configuration not stated),–,inactive: 3.09%,–
O=C(Nc1cccc(F)c1)N1CCCC(Cn2c(C3CC3)nc3cccnc32)C1 (configuration not stated),"inconclusive: 50.1 µM [inhibitor, single point]",–,–
Cc1cc(S(=O)(=O)N[C@@H]2CN(C)C[C@H]2CN(C)C)ccc1F,–,inactive: -9.95%,–
CCc1nn(-c2ccc(OC)cc2)c(Oc2ccccc2F)c1CCC(=O)N1CCSCC1,active: 44.7 µM,–,–
